Assay results published in the supplement of paper PMC8728848.
The list shows a part of the results.

Columns and labels:
Experiment in all cases: glycan array binding signal (z-score within array); higher = stronger binding
Conditions in all cases: glycan notation: IUPAC condensed, linker removed
[1] = target: Gal(b1-2)Gal
Method in brief: (§1)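 Glycan array binding is given as a within-array Z-score, which can be read as non-binding when negative. The arrays, 3228 of them, came from the Consortium for Functional Glycomics database and were retained only where the protein sequence was available. Z-scores were averaged across arrays of the same protein sequence at different concentrations or buffers and across linkers.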

[2] = target: Gal(b1-3)Gal
Method in brief: as §1

[3] = target: Gal(b1-3)Gal(b1-4)GlcNAc
Method in brief: as §1

[4] = target: Gal(b1-3)GalNAc
Method in brief: as §1

[5] = target: Gal(b1-3)GalNAc(a1-3)[Fuc(a1-2)]Gal(b1-4)Glc
Method in brief: as §1

[6] = target: Gal(b1-3)GalNAc(a1-3)[Fuc(a1-2)]Gal(b1-4)GlcNAc
Method in brief: as §1

[7] = target: Gal(b1-3)GalNAc(b1-3)Gal
Method in brief: as §1

[8] = target: Gal(b1-3)GalNAc(b1-3)Gal(a1-4)Gal(b1-4)Glc
Method in brief: as §1

[9] = target: Gal(b1-3)GalNAc(b1-4)Gal(b1-4)Glc
Method in brief: as §1

[10] = target: Gal(b1-3)GalNAc(b1-4)[Neu5Ac(a2-3)]Gal(b1-4)Glc
Method in brief: as §1

[11] = target: Gal(b1-3)GlcNAc
Method in brief: as §1

[12] = target: Gal(b1-3)GlcNAc(a1-3)Gal(b1-4)GlcNAc
Method in brief: as §1

[13] = target: Gal(b1-3)GlcNAc(a1-6)Gal(b1-4)GlcNAc
Method in brief: as §1

[14] = target: Gal(b1-3)GlcNAc(b1-2)Man
Method in brief: as §1

[15] = target: Gal(b1-3)GlcNAc(b1-2)Man(a1-3)[Gal(b1-3)GlcNAc(b1-2)Man(a1-6)]Man(b1-4)GlcNAc(b1-4)GlcNAc
Method in brief: as §1

[16] = target: Gal(b1-3)GlcNAc(b1-2)Man(a1-3)[Gal(b1-3)GlcNAc(b1-2)Man(a1-6)]Man(b1-4)GlcNAc(b1-4)[Fuc(a1-6)]GlcNAc
Method in brief: as §1

[17] = target: Gal(b1-3)GlcNAc(b1-2)Man(a1-3)[GlcNAc(b1-4)][Gal(b1-3)GlcNAc(b1-2)Man(a1-6)]Man(b1-4)GlcNAc(b1-4)GlcNAc
Method in brief: as §1

[18] = target: Gal(b1-3)GlcNAc(b1-2)[Gal(b1-3)GlcNAc(b1-6)]Man(a1-6)[Gal(b1-3)GlcNAc(b1-2)Man(a1-3)]Man(b1-4)GlcNAc(b1-4)GlcNAc
Method in brief: as §1

[19] = target: Gal(b1-3)GlcNAc(b1-3)Gal(b1-3)GlcNAc
Method in brief: as §1

[20] = target: Gal(b1-3)GlcNAc(b1-3)Gal(b1-4)Glc
Method in brief: as §1

[21] = target: Gal(b1-3)GlcNAc(b1-3)Gal(b1-4)GlcNAc
Method in brief: as §1

[22] = target: Gal(b1-3)GlcNAc(b1-3)Gal(b1-4)GlcNAc(b1-2)Man(a1-3)[Gal(b1-3)GlcNAc(b1-3)Gal(b1-4)GlcNAc(b1-2)Man(a1-6)]Man(b1-4)GlcNAc(b1-4)GlcNAc
Method in brief: as §1

[23] = target: Gal(b1-3)GlcNAc(b1-3)Gal(b1-4)GlcNAc(b1-2)[Gal(b1-3)GlcNAc(b1-3)Gal(b1-4)GlcNAc(b1-6)]Man(a1-6)[Gal(b1-3)GlcNAc(b1-3)Gal(b1-4)GlcNAc(b1-2)Man(a1-3)]Man(b1-4)GlcNAc(b1-4)[Fuc(a1-6)]GlcNAc
Method in brief: as §1

[24] = target: Gal(b1-3)GlcNAc(b1-3)Gal(b1-4)GlcNAc(b1-3)Gal(b1-4)GlcNAc(b1-2)[Gal(b1-3)GlcNAc(b1-3)Gal(b1-4)GlcNAc(b1-3)Gal(b1-4)GlcNAc(b1-6)]Man(a1-6)[Gal(b1-3)GlcNAc(b1-3)Gal(b1-4)GlcNAc(b1-3)Gal(b1-4)GlcNAc(b1-2)Man(a1-3)]Man(b1-4)GlcNAc(b1-4)[Fuc(a1-6)]GlcNAc
Method in brief: as §1

[25] = target: Gal(b1-3)GlcNAc(b1-3)Gal(b1-4)GlcNAc(b1-6)[Gal(b1-3)GlcNAc(b1-3)]Gal(b1-4)Glc
Method in brief: as §1

[26] = target: Gal(b1-3)GlcNAc(b1-3)Gal(b1-4)[Fuc(a1-3)]GlcNAc
Method in brief: as §1

[27] = target: Gal(b1-3)GlcNAc(b1-3)Gal(b1-4)[Fuc(a1-3)]GlcNAc(b1-6)[Gal(b1-3)GlcNAc(b1-3)]Gal(b1-4)Glc
Method in brief: as §1

[28] = target: Gal(b1-3)GlcNAc(b1-3)GalNAc
Method in brief: as §1

[29] = target: Gal(b1-3)GlcNAc(b1-6)Gal(b1-4)GlcNAc
Method in brief: as §1

[30] = target: Gal(b1-3)GlcNAc(b1-6)GalNAc
Method in brief: as §1

[31] = target: Gal(b1-3)GlcNAc(b1-6)[Gal(b1-3)]GalNAc
Method in brief: as §1

[32] = target: Gal(b1-3)GlcNAc6S
Method in brief: as §1

[33] = target: Gal(b1-3)[Fuc(a1-4)]GlcNAc
Method in brief: as §1

[34] = target: Gal(b1-3)[Fuc(a1-4)]GlcNAc(b1-2)Man
Method in brief: as §1

[35] = target: Gal(b1-3)[Fuc(a1-4)]GlcNAc(b1-2)Man(a1-3)[Gal(b1-3)[Fuc(a1-4)]GlcNAc(b1-2)Man(a1-6)]Man(b1-4)GlcNAc(b1-4)[Fuc(a1-6)]GlcNAc
Method in brief: as §1

[36] = target: Gal(b1-3)[Fuc(a1-4)]GlcNAc(b1-3)Gal(b1-3)[Fuc(a1-4)]GlcNAc
Method in brief: as §1

[37] = target: Gal(b1-3)[Fuc(a1-4)]GlcNAc(b1-3)Gal(b1-4)[Fuc(a1-3)]GlcNAc
Method in brief: as §1

[38] = target: Gal(b1-3)[Fuc(a1-4)]GlcNAc(b1-6)GalNAc
Method in brief: as §1

[39] = target: Gal(b1-3)[GlcNAc(b1-6)]GalNAc
Method in brief: as §1

[40] = target: Gal(b1-3)[Neu5Ac(a2-6)]GalNAc
Method in brief: as §1

[41] = target: Gal(b1-3)[Neu5Ac(a2-6)]GlcNAc(b1-4)Gal(b1-4)Glc
Method in brief: as §1

[42] = target: Gal(b1-3)[Neu5Ac(b2-6)]GalNAc
Method in brief: as §1

[43] = target: Gal(b1-4)Gal
Method in brief: as §1

[44] = target: Gal(b1-4)GalNAc(a1-3)[Fuc(a1-2)]Gal(b1-4)GlcNAc
Method in brief: as §1

[45] = target: Gal(b1-4)GalNAc(b1-3)[Fuc(a1-2)]Gal(b1-4)GlcNAc
Method in brief: as §1

B1: PfulAvr4 2 (Pseudocercospora fuligena) (protein)
chain: HHHHHHDYKDDDDKAKPIKPFACPPKDFTTTKCQGPVDCLYANPLSCLGYIQCVCDDDACSTATPYAKSCPTGLAWVEKLKRCDGIKKSACPKKMYEGS
glycan array binding signal (z-score) [1]: 0.289
glycan array binding signal (z-score) [2]: 0.13
glycan array binding signal (z-score) [3]: -0.441
glycan array binding signal (z-score) [4]: -0.243
glycan array binding signal (z-score) [5]: -0.255
glycan array binding signal (z-score) [6]: -0.31
glycan array binding signal (z-score) [7]: -0.173
glycan array binding signal (z-score) [8]: -0.108
glycan array binding signal (z-score) [9]: -0.022
glycan array binding signal (z-score) [10]: -0.201
glycan array binding signal (z-score) [11]: 0.216
glycan array binding signal (z-score) [12]: -0.237
glycan array binding signal (z-score) [13]: -0.356
glycan array binding signal (z-score) [14]: -0.279
glycan array binding signal (z-score) [15]: 2.62
glycan array binding signal (z-score) [16]: -0.024
glycan array binding signal (z-score) [17]: 8.86
glycan array binding signal (z-score) [18]: -0.063
glycan array binding signal (z-score) [19]: -0.133
glycan array binding signal (z-score) [20]: 0.144
glycan array binding signal (z-score) [21]: -0.311
glycan array binding signal (z-score) [22]: -0.361
glycan array binding signal (z-score) [23]: -0.218
glycan array binding signal (z-score) [24]: -0.201
glycan array binding signal (z-score) [25]: -0.07
glycan array binding signal (z-score) [26]: -0.315
glycan array binding signal (z-score) [27]: -0.352
glycan array binding signal (z-score) [28]: -0.436
glycan array binding signal (z-score) [29]: -0.11
glycan array binding signal (z-score) [30]: -0.399
glycan array binding signal (z-score) [31]: -0.351
glycan array binding signal (z-score) [32]: -0.337
glycan array binding signal (z-score) [33]: -0.218
glycan array binding signal (z-score) [34]: 2.11
glycan array binding signal (z-score) [35]: 1.31
glycan array binding signal (z-score) [36]: -0.33
glycan array binding signal (z-score) [37]: -0.283
glycan array binding signal (z-score) [38]: -0.34
glycan array binding signal (z-score) [39]: -0.28
glycan array binding signal (z-score) [40]: -0.163
glycan array binding signal (z-score) [41]: -0.313
glycan array binding signal (z-score) [42]: -0.3
glycan array binding signal (z-score) [43]: -0.231
glycan array binding signal (z-score) [44]: -0.448
glycan array binding signal (z-score) [45]: -0.44
